Results: the supplement of paper PMC6206098
± gives the uncertainty stated by the source. The sequences are guide strands of siRNAs; only the seed at positions 2 to 7 varies.

What was measured:
3LL = assay: cell viability relative to siNT1 control; higher = less toxic; settings: concentration: 10 nM; 96 h; Mus musculus;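 further: Luminescence-based viability of cells reverse transfected in 384-well plates with lipid-complexed siRNAs built on a non-toxic 19mer backbone whose passenger strand carries 2′-O-methyl groups at positions 1 and 2, triplicates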
H460 = assay: cell viability relative to lipid-only control; HeyA8 human ovarian and H460 human lung cancer; M565 mouse liver and 3LL mouse lung cancer; siNT1 is a non-toxic control siRNA; higher = less toxic; settings: concentration: 10 nM; 96 h; Homo sapiens
HeyA8 = assay: as above; settings: concentration: 10 nM; 96 h; Homo sapiens
M565 = assay: as above; settings: concentration: 10 nM; 96 h; Mus musculus
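Wherever cell viability relative to lipid-only control is given: reverse lipid transfection in 384-well plates, in triplicate, of duplexes on a non-toxic 19mer backbone with passenger strand 2′-O-methylated at positions 1 and 2, luminescence viability read-out.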

Sequence	cell viability (3LL) [%]	cell viability (H460) [%]	cell viability (HeyA8) [%]	cell viability (M565) [%]
UUCCACUACAUGUAAACCAAA	79.1 ± 12	51.8 ± 3.5	82.1 ± 3.6	63.3 ± 9.3
UUCCAGAACAUGUAAACCAAA	105 ± 23	61.5 ± 7	92.7 ± 12	95.5 ± 14
UUCCAGCACAUGUAAACCAAA	27.5 ± 1.8	25.2 ± 1.1	51.4 ± 3.4	62.8 ± 6.7
UUCCAGGACAUGUAAACCAAA	61.2 ± 16	57.4 ± 5.2	80.1 ± 10	23.8 ± 7.8
UUCCAGUACAUGUAAACCAAA	61.9 ± 12	62.2 ± 11	77.4 ± 15	51.9 ± 1.9
UUCCAUAACAUGUAAACCAAA	103 ± 25	46.6 ± 7.7	96.3 ± 15	89.4 ± 5.1
UUCCAUCACAUGUAAACCAAA	63.6 ± 2.8	43.2 ± 5.4	20.6 ± 2.3	37.9 ± 2.6
UUCCAUGACAUGUAAACCAAA	107 ± 27	53 ± 0.67	89.8 ± 9.3	103 ± 6.3
UUCCAUUACAUGUAAACCAAA	94.1 ± 29	69.7 ± 1.1	92.6 ± 7.9	91.3 ± 7
UUCCCAAACAUGUAAACCAAA	83.7 ± 19	97.6 ± 10	79.6 ± 14	66.9 ± 13
UUCCCACACAUGUAAACCAAA	82.6 ± 13	40.4 ± 4.9	41.4 ± 1.6	44.5 ± 4.7
UUCCCAGACAUGUAAACCAAA	76.7 ± 16	84.4 ± 4.5	74.1 ± 9.1	38.3 ± 10
UUCCCAUACAUGUAAACCAAA	70.7 ± 8.7	83.4 ± 12	88 ± 2	75.4 ± 14
UUCCCCAACAUGUAAACCAAA	52.2 ± 19	98.7 ± 19	78.2 ± 10	26.8 ± 7.8
UUCCCCCACAUGUAAACCAAA	30.4 ± 5.3	43.5 ± 2.7	38.5 ± 2	32.6 ± 5.1
UUCCCCGACAUGUAAACCAAA	69.3 ± 10	90.8 ± 7.6	84.5 ± 8	22.22 ± 0.15
UUCCCCUACAUGUAAACCAAA	46.2 ± 12	65.2 ± 9.1	66.9 ± 9.8	23.2 ± 1.8
UUCCCGAACAUGUAAACCAAA	98 ± 21	85.9 ± 8.2	100 ± 8.2	88.1 ± 7.6
UUCCCGCACAUGUAAACCAAA	74.6 ± 7.2	23.2 ± 0.28	43.1 ± 1.9	95.8 ± 11
UUCCCGGACAUGUAAACCAAA	72.3 ± 22	57.3 ± 3	78.2 ± 2.2	55.4 ± 7.3

Sequence	cell viability (3LL) [%]	cell viability (H460) [%]	cell viability (HeyA8) [%]	cell viability (M565) [%]
UUCCCGUACAUGUAAACCAAA	76.1 ± 3.3	65.2 ± 8.2	59.7 ± 2.2	99.4 ± 16
UUCCCUAACAUGUAAACCAAA	101 ± 12	80.6 ± 8.6	94.8 ± 3.6	87.7 ± 11
UUCCCUCACAUGUAAACCAAA	33.7 ± 6.8	36.9 ± 4.2	48.5 ± 2.4	45.3 ± 4.3
UUCCCUGACAUGUAAACCAAA	103 ± 6.4	78.7 ± 2	79.4 ± 3.9	102 ± 14
UUCCCUUACAUGUAAACCAAA	107 ± 14	75.8 ± 5	81.3 ± 7.9	96.8 ± 10
UUCCGAAACAUGUAAACCAAA	105 ± 18	84.4 ± 15	91.9 ± 11	101 ± 10
UUCCGACACAUGUAAACCAAA	59.2 ± 5.3	89.1 ± 6.8	87.4 ± 11	65.6 ± 15
UUCCGAGACAUGUAAACCAAA	109 ± 21	93.2 ± 13	96.3 ± 5.3	99.5 ± 9
UUCCGAUACAUGUAAACCAAA	65.8 ± 12	80.1 ± 7.3	88.3 ± 13	69.4 ± 14
UUCCGCAACAUGUAAACCAAA	87.5 ± 24	88.3 ± 6.3	91.1 ± 2.8	67.4 ± 6.5
UUCCGCCACAUGUAAACCAAA	11.4 ± 2.2	42.1 ± 1.7	27.2 ± 7.8	11.4 ± 4.7
UUCCGCGACAUGUAAACCAAA	93.2 ± 9.1	83.9 ± 13	93.4 ± 10	84 ± 8
UUCCGCUACAUGUAAACCAAA	70.7 ± 21	46.8 ± 3.8	59.3 ± 8.5	73.2 ± 11
UUCCGGAACAUGUAAACCAAA	82.5 ± 23	86.3 ± 5.2	94.2 ± 14	68.9 ± 8.4
UUCCGGCACAUGUAAACCAAA	39.1 ± 12	37.4 ± 0.78	49.6 ± 9	43.9 ± 9.9
UUCCGGGACAUGUAAACCAAA	49 ± 3.6	69.2 ± 3.4	71.7 ± 7.5	29.8 ± 6.2
UUCCGGUACAUGUAAACCAAA	56.8 ± 20	70.2 ± 1.4	65.3 ± 11	21.1 ± 1.5
UUCCGUAACAUGUAAACCAAA	90 ± 16	94 ± 10	93.5 ± 16	95.2 ± 11
UUCCGUCACAUGUAAACCAAA	51.3 ± 5.6	70.9 ± 1.2	89.4 ± 12	38.3 ± 4.9
UUCCGUGACAUGUAAACCAAA	83.8 ± 15	89 ± 3.3	87.1 ± 14	62.8 ± 1.8

Sequence	cell viability (3LL) [%]	cell viability (H460) [%]	cell viability (HeyA8) [%]	cell viability (M565) [%]
UUCCGUUACAUGUAAACCAAA	43.4 ± 9.3	72.3 ± 3.8	93.4 ± 10	39.8 ± 2.3
UUCCUAAACAUGUAAACCAAA	78.8 ± 21	74.5 ± 9.7	108 ± 12	110 ± 12
UUCCUACACAUGUAAACCAAA	25.2 ± 4.6	60.9 ± 4.8	79.6 ± 5.2	105 ± 20
UUCCUAGACAUGUAAACCAAA	22.5 ± 3.2	53.4 ± 7.3	91.2 ± 14	74.9 ± 9.5
UUCCUAUACAUGUAAACCAAA	24 ± 8.3	76.8 ± 11	93 ± 11	84.8 ± 9.3
UUCCUCAACAUGUAAACCAAA	66.6 ± 14	55.2 ± 13	87.5 ± 2.3	65.2 ± 12
UUCCUCCACAUGUAAACCAAA	27.6 ± 4	20.4 ± 3.3	26.7 ± 2.7	56 ± 7.8
UUCCUCGACAUGUAAACCAAA	82.9 ± 18	54 ± 4.6	93.4 ± 14	57.5 ± 4.3
UUCCUCUACAUGUAAACCAAA	67.6 ± 11	53.2 ± 4.9	60.6 ± 4.5	44.5 ± 7.6
UUCCUGAACAUGUAAACCAAA	102 ± 18	78.7 ± 3	90.5 ± 11	117 ± 22
UUCCUGCACAUGUAAACCAAA	7.05 ± 1	30.9 ± 3.6	41.2 ± 2.7	57.1 ± 8.9
UUCCUGGACAUGUAAACCAAA	15.5 ± 1.6	49 ± 9.7	53.3 ± 14	46.6 ± 7.4
UUCCUGUACAUGUAAACCAAA	9.51 ± 2.2	24.2 ± 5	36.8 ± 4	58.5 ± 6
UUCCUUAACAUGUAAACCAAA	106 ± 27	79.9 ± 12	91.4 ± 12	94.7 ± 13
UUCCUUCACAUGUAAACCAAA	56 ± 15	47.4 ± 3.1	23.7 ± 6.7	62.3 ± 5.5
UUCCUUGACAUGUAAACCAAA	92.9 ± 16	83.4 ± 6.7	88.5 ± 14	104 ± 9.1
UUCCUUUACAUGUAAACCAAA	66 ± 27	58.3 ± 4	90.4 ± 8.2	89.5 ± 20
UUCGAAAACAUGUAAACCAAA	108 ± 20	73.1 ± 17	91.1 ± 9	97 ± 2.4
UUCGAACACAUGUAAACCAAA	94.1 ± 14	76.7 ± 2.4	78.5 ± 11	70.3 ± 14
UUCGAAGACAUGUAAACCAAA	104 ± 11	71.9 ± 14	89 ± 10	82.9 ± 8.8
